This note sets out measurements from PubChem BioAssay (NCI).

Values joined by “and” are separate entries in the source; they are usually repeats but may differ in a detail not shown here. Identical values can stand only once.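 48-hour exposure; five concentrations; linearly interpolated endpoints. GI50 marks 50% less growth. The concentration for full growth arrest is given as TGI.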

This test deals with NCI-H322M lung. As to the kind of experiment: inhibition of tumour cell growth, NCI panel, 48 h.
In turn, `Cc1cc(C)n(CN(CCCCO)Cn2nc(C)cc2C)n1` registered a TGI greater than 100 µM.
On the same count and under the same terms, the result for `COc1ccc(Cc2ccc3[nH]c(=O)cc(C)c3c2)cc1S(=O)(=O)O` reads greater than 100 µM.
On to `C=C(C)[C@@H]1C/C=C(/COC(C)=O)CC[C@H]2O[C@@]2(C)CC/C=C(\C)CC1`, for which the GI50 is greater than 100 µM and the TGI was greater than 100 µM.
Regarding `Cc1cc(C)c([I+]c2c(C)cc(C)cc2C)c(C)c1`, the GI50 was 2.04 µM and the TGI turned out to be 4.55 µM.
As for `NC1=C(O)/C(=N/NS(=O)(=O)c2ccccc2)C(c2ccc3c(c2)OCO3)O1` (stereo unspecified), the TGI is greater than 100 µM.
Same read-out and setting: the result for `COc1nc2c(c(=O)[nH]1)N=C(c1ccccc1)CC(c1ccccc1)N2` (stereo unspecified) reads greater than 100 µM.
Still for that read-out and setting: the result for `O=C1/C(=C/c2ccc([N+](=O)[O-])cc2)CCCc2ccccc21` reads greater than 100 µM.
The same measure, in the same setting: the result for `CCOc1cc2c(cc1O)C=C[C@@H]1[C@@H]2CC[C@]2(C)[C@@H](O)CC[C@@H]12` reads 42.4 µM.
On to `O=C(N/N=C\c1ccc(N(CCCl)CCCl)cc1)c1cccnc1`, for which the GI50 is greater than 100 µM and the TGI is greater than 100 µM.
As for `COc1nc2c(c(=O)n1C)CN(c1ccccc1)C(=O)CN2C`, the GI50 was 79.7 µM and the TGI is greater than 100 µM.
Consider `C=C[C@@H]1CCC/C=C/[C@@H]2C[C@H](O)C[C@H]2[C@H](O)/C=C/C(=O)O1`, for which the GI50 is 0.801 µM and the TGI is greater than 100 µM.
`Fc1ccccc1-c1cc(=S)c2cc3c(cc2[nH]1)OCO3` showed a TGI greater than 100 µM.
Regarding `O=C([O-])c1ccccc1Nc1ccccc1C(=O)[O-].[OH3+].[Zn+2]`, the TGI turned out to be 47.2 µM.
Still for that read-out and setting: the result for `Cc1ccc(F)c2[nH]c(-c3ccccc3)cc(=O)c12` reads greater than 100 µM.
For the compound `CO[C@H]1/C=C/O[C@@]2(C)Oc3c(C)c(O)c4c(O)c(c(/C=N/N5C(C)CN(Cc6ccc(C#N)cc6)CC5C)c(O)c4c3C2=O)NC(=O)/C(C)=C\C=C\[C@H](C)[C@H](O)[C@@H](C)[C@@H](O)[C@@H](C)[C@H](OC(C)=O)[C@@H]1C` (stereo partly specified), the GI50 is 11.6 µM and the TGI came out at 26.3 µM.
As for `CCOC(=O)C1=NN(c2ccc(C)cc2)C2(c3ccccc3)C=C(c3ccccc3)N(C)CCN12` (stereo unspecified), the TGI is greater than 100 µM.
Take `Oc1cccc2cccnc12`: the GI50 is 6.43 µM and 30 µM and 13.2 µM; the TGI is greater than 100 µM.
On to `COc1ccc(NC(=O)c2ccc(C(F)(F)F)nc2Nc2ccc(Cl)cc2C)cc1Cl`, for which the GI50 is 20.3 µM and the TGI is 50.4 µM.
Compound `CCc1cc2c(cc1C(=O)CCC(=O)O)CC1(C2)Cc2cc(CC)c(C(=O)CCC(=O)O)cc2C1` gave a TGI greater than 100 µM.
For the compound `N#Cc1ccc2[nH]cc(Cc3c[nH]c4ccc(C#N)cc34)c2c1`, the GI50 is 8.43 µM and the TGI came to 21.7 µM.
The like results for `O=c1cc(-c2ccccc2)oc2c(O)c(O)ccc12` were, in that order, 5.15 µM and 50.4 µM.
For `COc1ccc(C2=NN(C(C)=O)c3nc4ccccc4nc3O2)cc1`, the TGI was greater than 100 µM.
Same read-out and setting: the result for `N#CC12CC(C=O)=C(N)C1(C#N)CC(C=O)=C2N` (stereo unspecified) reads greater than 100 µM.
Same read-out and setting: the result for `CC(C)(C)c1cc[n+](C[n+]2ccc(C(C)(C)C)cc2)cc1` reads greater than 100 µM; that for `CCCC(=O)Oc1ccc(/C=N/NC(N)=S)nc1`, greater than 100 µM.
Consider `COc1cccc(C2SC(C)C(=O)N2NC(=O)C(O)c2ccccc2)c1` (stereo unspecified), for which the GI50 is greater than 100 µM and the TGI is greater than 100 µM.
For the compound `C[N+]1(CCNP(=S)(NCC[N+]2(C)Cc3c(ccc4c3OCO4)C3C2c2cc4c(cc2C[C@@H]3O)OCO4)NCC[N+]2(C)Cc3c(ccc4c3OCO4)C3C2c2cc4c(cc2C[C@@H]3O)OCO4)Cc2c(ccc3c2OCO3)C2C1c1cc3c(cc1C[C@H]2O)OCO3` (stereo partly specified), the GI50 was 16.1 µM.
Regarding `COC(Cc1cc(C(O)(c2ccc(C(C)(C)C)cc2)c2cc(CC(OC)(c3cc(C(OC)(c4ccc(C(C)(C)C)cc4)c4ccc(C(C)(C)C)cc4)c(C)cc3C)c3cc(C(OC)(c4ccc(C(C)(C)C)cc4)c4ccc(C(C)(C)C)cc4)c(C)cc3C)c(C)cc2C)c(C)cc1C)(c1cc(C(OC)(c2ccc(C(C)(C)C)cc2)c2ccc(C(C)(C)C)cc2)c(C)cc1C)c1cc(C(OC)(c2ccc(C(C)(C)C)cc2)c2ccc(C(C)(C)C)cc2)c(C)cc1C`, the TGI is greater than 75 µM.
The same measure, in the same setting: the result for `Cc1cn(C(CO)OC(CO)CN(O)C2C3CC4CC(C3)CC2C4)c(=O)[nH]c1=O` (stereo unspecified) reads greater than 100 µM.
On to `Cn1cnc(SC2=CC(=O)C=C3S[C@H]4C[C@@]23c2c(c(O)c3c5c2=NCCC=5C=N3)N4)c1CC(N)C(=O)O` (stereo partly specified), for which the GI50 is 5.24 µM and the TGI was 17.3 µM.
In turn, `CC(C)(Oc1ccc2c(=O)cc(-c3ccc(Cl)cc3)oc2c1)C(=O)Nc1c(Cl)cccc1Cl` returned a TGI greater than 100 µM.
Still for that read-out and setting: the result for `Cc1cn(CC2(CO)CCC2)c(=O)[nH]c1=O` reads greater than 100 µM.
Take `C[C@]12CC[C@@H]3c4ccc(O)cc4CC[C@H]3[C@@H]1CC(Cc1ccccc1)(Cc1ccccc1)C2=O`: the GI50 is 18.8 µM and the TGI is 38.5 µM.
`Oc1cccc2ccc(SSc3ccc4cccc(O)c4n3)nc12` displayed a TGI greater than 100 µM.
On to `CCOc1ccc(Nc2ccnc3cc(Cl)ccc23)cc1`, for which the GI50 is greater than 100 µM and the TGI is greater than 100 µM.
For the compound `COc1ccc2c(c1)/C(=C\c1c(-c3ccccc3)nc3sccn13)C(=O)N2`, the GI50 is greater than 100 µM and the TGI was greater than 100 µM.
`CN1CCN(c2ccncc2S(=O)(=O)N2CCN(C)CC2)CC1`: the TGI was greater than 100 µM.
Same read-out and setting: the result for `C=CCN=C1NC(=O)C(CC(=O)Nc2cccc(Cl)c2)S1` (stereo unspecified) reads greater than 100 µM; that for `COC(=O)C(/C(=N/N)C(=O)Nc1cc(Cl)ccc1Cl)c1nc2ccc([N+](=O)[O-])cc2[nH]c1=O` (stereo unspecified), greater than 100 µM.
Regarding `COc1ccc2c(c1)C(=O)c1c-2n(CCCN=[N+]=[N-])c(=O)c2cc([N+](=O)[O-])ccc12`, the GI50 was 0.397 µM and 2.91 µM; the TGI is greater than 100 µM.
In the case of `OC(c1cc2ccccc2[nH]1)C(O)(c1cc2ccccc2[nH]1)c1cc2ccccc2[nH]1` (stereo unspecified), the TGI stood at 87.9 µM.
The same measure, in the same setting: the result for `CC(=O)/C(=C/N1CC(=O)NC1=S)C(=O)Nc1ccccc1C` reads greater than 100 µM; that for `C[C@@H](c1ccccc1)N1C[C@@H](c2ccc3c(c2)OCO3)[C@@H]2C(=O)CCC[C@@H]21`, greater than 100 µM; that for `CC1=C(O)C(=O)C2C(=O)C1C(C)C2c1ccccc1` (stereo unspecified), greater than 100 µM.
On the same count and under the same terms, the result for `Nc1ccc2nc3n(c2c1)C(c1c(F)cccc1F)SC3` (stereo unspecified) reads greater than 100 µM.
As to `CCCC(=O)Oc1c2ccsc2c(OC(=O)CCC)c2ccsc12`, the TGI was 7.52 µM.
`COc1ccc(CC2Cc3ccccc3CC(=O)N2)cc1OC` (stereo unspecified) registered a TGI greater than 100 µM.
Take `COc1ccc(-c2c(NC(=O)Nc3ccc(Cl)c(C(F)(F)F)c3)cnn2-c2ccc(S(N)(=O)=O)cc2)cc1`: the GI50 was 3.91 µM and the TGI worked out at 14.3 µM.
Take `CC1(C)C(CBr)=[N+]([O-])C(C)(C)N1O`: the TGI was greater than 10 µM.
Same read-out and setting: the result for `CC(=O)O[C@H]1CC[C@@]2(C)C(=CC[C@H]3C(CC#N)[C@@](C)(C#N)CCC32)C1` (stereo partly specified) reads greater than 100 µM.
Consider `COc1ccc(OC)c(-c2cc(-c3ccc(Cl)cc3)nn2-c2ccccc2)c1`, for which the GI50 is 40.1 µM and the TGI is greater than 100 µM.
The matching figures for `COc1cc(/C=C2\C[C@H]3[C@@H]4CC=C5C[C@@H](O)CC[C@]5(C)[C@H]4CC[C@]3(C)[C@H]2O)ccc1OCCN1CCCCC1`: 1.03 µM and 2.16 µM.
On to `CCOP(=O)(OCC)/C(=C\n1ccc(=O)[nH]c1=S)C(=O)OC`, for which the TGI was greater than 100 µM.
On to `Nc1nncc2n[nH]nc12`, for which the TGI was greater than 100 µM.
Same read-out and setting: the result for `Cc1ccc(NC(=O)CCc2nnc3s/c(=C\C=C\c4ccccc4)c(=O)n23)cc1` reads greater than 100 µM; that for `Cc1cc(-c2nc3ccc(F)cc3s2)ccc1NC(=O)C(N)CCCCN` (stereo unspecified), 18.5 µM; that for `O=C1NCN(c2ccccc2)C12CCN(CCCN1CCN(CCOC(c3ccccc3)c3ccccc3)CC1)CC2`, 7.82 µM.
On to `[Mn+3].[O-][Cl+3]([O-])([O-])O.[O-]c1ccccc1C=NCCN1CC1.[O-]c1ccccc1C=NCCN1CC1`, for which the GI50 was 14.3 µM and the TGI is greater than 100 µM.
`Cn1c(=O)nc2n(-c3ccc(F)c(F)c3)c3ccccc3nc-2c1=O` came in with a TGI of 68.5 µM.
Same read-out and setting: the result for `CON1C(=O)C2(CCCCC2)C(=O)C12C=CC(C)CC2` (stereo unspecified) reads greater than 100 µM; that for `CCCC(=O)Nc1cc(/C=C/C(=O)N2CC(CCl)c3ccc([N+](=O)[O-])cc32)n(C)c1` (stereo unspecified), greater than 100 µM; that for `CSc1nc2nccnc2c(=O)[nH]1`, greater than 100 µM.
Same read-out and setting: the result for `COc1ccc2[nH]c3c(c2c1)CCc1c(OC)cccc1-3` reads greater than 100 µM; that for `O=C1C2CCCC2N1Cc1ccccc1` (stereo unspecified), greater than 100 µM; that for `Cc1nc(-c2cccnc2)sc1C(=O)CC(=O)C(=O)Nc1cccc(NC(=O)C(=O)CC(=O)c2sc(-c3cccnc3)nc2C)n1`, greater than 100 µM.
Same read-out and setting: the result for `CCCCCCCCCCCCCC(=O)OCC(CCS(=O)(=O)O[C@H]1CC[C@@]2(C)C(=CC[C@@H]3C2CC[C@]2(C)C(=O)CCC32)C1)OC(=O)CCCCCCCCCCCCC` (stereo partly specified) reads greater than 100 µM.
`CCCCCCCCCCNC(=S)OC` came in with a TGI greater than 100 µM.
Regarding `COc1ccc(/C=C/c2cc(OC)c(OC)c(OC)c2)cc1OC`, the TGI is greater than 100 µM.
Same read-out and setting: the result for `Clc1ccc(-c2nnc(-c3nn(-c4ccccc4)c4nc5ccccc5nc34)o2)cc1` reads greater than 100 µM.
Same read-out and setting: the result for `CC1(C)CC[C@]2(C)[C@@H](O)C[C@]3(C)C(=CC[C@@H]4[C@@]5(C)CC[C@H](O)C(C)(C)[C@@H]5CC[C@]43C)[C@@H]2C1` reads greater than 100 µM; that for `N#CC1(C#N)C(=O)c2ccncc2C1=O`, greater than 100 µM.
On the same count and under the same terms, the result for `COc1c(O)cc2c(c1O)C(=O)C(Cc1ccc(O)cc1)CO2` (stereo unspecified) reads greater than 100 µM; that for `Cc1cc(OP2(=O)NCc3ccncc3O2)ccc1Cl` (stereo unspecified), greater than 100 µM.
For `O=c1cccccc1O`, the TGI was greater than 100 µM.
On the same count and under the same terms, the result for `CC(C)CC(C#CCCOC(=O)c1ccccc1)OC(=O)c1ccccc1` (stereo unspecified) reads greater than 10 µM.
`C/C1=C\[C@@H](C)C[C@@H](C)OC(=O)[C@@H](C)NC(=O)[C@H](Cc2ccc(O)c(Br)c2)N(C)C(=O)CNC(=O)[C@H](C)C1` returned a TGI greater than 100 µM.
Same read-out and setting: the result for `CCSC1=N/C(=C\c2ccco2)C(Nc2ccc(C)cc2)=N1` reads greater than 100 µM; that for `CC1=C/C(=N\NS(=O)(=O)c2ccc([N+](=O)[O-])cc2)CC(C)(C)C1`, greater than 100 µM.
The same measure, in the same setting: the result for `CC(C)(C)n1[nH]c(=O)n(C(C)(C)C)c1=O` reads greater than 100 µM.
`C[C@]1(c2nc3c(C(N)=O)cccc3[nH]2)CCCN1`: the GI50 is 39.4 µM and > 92.7 µM; the TGI is greater than 100 µM.
